Measured values published in PubChem BioAssay AID662 (National Center for Advancing Translational Sciences (NCATS), 2007).
Values joined by “and” are separate entries in the source; they are usually repeats but may differ in a detail not shown here. Identical values can stand only once. Out of some 71,000 compounds screened, about 1,800 (2.5%) were called active. Inconclusive results, whose numbers are uncertain, are shown with a selection of clear calls. Calls come from the whole dose curve; as a rule, active = well fitted activation curve with a large enough effect in the signal ratio, with a control signal flat (not every such curve was filed as active); inconclusive = small, poorly fitted or top-dose-only effect, or effect the other way, or a change in a side signal; inactive = flat fitted curve, though single readings scatter; the % refers to the signal ratio. Where the call is inconclusive, the potency comes from a doubtful curve fit.

Experiment: Cell signaling CRE-BLA (Fsk stim); for activity change, negative = inhibition: % of control where 0% means no effect
Settings: CHO CRE-bla reporter (cAMP response element driving beta-lactamase), forskolin EC10, beta-lactamase ratio; activity change, negative = inhibition: at 38.2 µM (top of the series) unless noted
How it was run: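 AC50 values, positive or negative, reflect shifts in EC10 NKH 477-induced CRE-bla reporter activity in CHO cells. Incubation lasted 3 h at 37 °C before CCF4 substrate (2 h, room temperature) and ratiometric 460/530 nm reading.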
Potency is the fitted concentration of half-maximal effect; tags give direction and shape of the fitted curve.

SMILES | activity change, negative = inhibition | Potency
COc1ccc2c(C(F)(F)F)cc(=O)oc2c1C | inconclusive: 28.1% | 
Cc1[nH]c2ccccc2c1CCC(N)=O | inconclusive: -8.25% [at 7.6 µM] | 
Cc1ccc2c(c1)cc(CN(Cc1ccccc1)C(=O)N(C)C)c1nnnn12 | inconclusive: 11.7% | 
CCCc1nc2oc3c(NCc4ccccn4)ncnc3c2c2c1COC(C)(C)C2 |  | active: 0.794 µM
O=C(C1CCCCC1)N1CCN(c2ncccn2)CC1 | inactive: 12% | 
CCc1cccc2c(-c3ccccc3)c3c(nc12)OCC3 |  | inconclusive: 2.51 µM [rising, partial curve]
O=C(CC1CCS(=O)(=O)C1)Nc1ccc[nH]c1=O (configuration not stated) | inconclusive: -2.47% | 
Cc1cc(C)nc(SCC(=O)NCc2ccco2)n1 | inconclusive: 8.38% [at 7.6 µM] | 
O=C(c1csnn1)N1CCC2(CC1)CCN(c1ccccn1)CC2 | inactive: 4.58% | 
Cc1ccc2c(c1)nc(NCCO)n2C | inconclusive: -23.6% | 
CC(C)C1N=C2c3ccccc3N=C(SCc3cc(=O)n4ccccc4n3)N2C1=O (configuration not stated) | inconclusive: 22.1% | 
O=c1[nH]c2ccccc2nc1C(F)(F)C(F)F |  | inconclusive: 0.631 µM [rising, partial curve]
CCn1cnc2cc(NCc3ccncc3)ccc21 | inactive: 3.3% | 
CCOC(=O)c1[nH]c2ccc(F)cc2c1NC(=O)C(C)N1CCc2cc(OC)c(OC)cc2C1 (configuration not stated) |  | inconclusive: 10 µM [rising, single point]
CCN(CC)S(=O)(=O)c1ccc(C(=O)Nc2c3c(nn2C(C)(C)C)CS(=O)(=O)C3)cc1 | inactive: -10.4% | 
CC(C)c1cc(C(F)(F)F)nc(NNc2nc(C(C)C)cc(C(F)(F)F)n2)n1 | inactive: 11.2% [at 7.6 µM] | 
c1c2c(cc3sc(N4CCOCC4)nc13)OCCO2 |  | inconclusive: 10 µM [rising, single point]
CCC(C)(C)n1nnnc1C(c1ccc(C)cc1)N1CCCC1 (configuration not stated) | inactive: -0.771% | 
CCOP(=O)(c1ccc(N(C)C)cc1)C(O)c1cc(OC)c(OC)c(OC)c1 (configuration not stated) | inconclusive: 11% | 
CCOC(=O)/C(C#N)=C1/C=Nc2ccccc2N1 |  | inconclusive: 10 µM [rising, single point]
C/C(=N/NS(=O)(=O)c1ccc(C)cc1)P(=O)(O)O | inactive: -3.61% [at 7.6 µM] | 

SMILES | activity change, negative = inhibition | Potency
CC1(C)CC(=O)N(CC(=O)O)c2ccccc2S1 | inconclusive: 4.68% | 
CCn1c(=O)cc(OCC(=O)N(C)c2ccccc2F)c2ccccc21 |  | inconclusive: 12.6 µM [rising, partial curve]
CC1C2CC(C(S(=O)(=O)N3CCOCC3)C2=O)C1(C)C (configuration not stated) | inconclusive: -1.55% | 
CCOC(=O)C(NC(=O)CC)(Nc1ccc(S(=O)(=O)Nc2ncccn2)cc1)C(F)(F)F (configuration not stated) | inconclusive: 17.1% | 
COCCn1c(=O)c(CCc2ccccc2)nc2cnc(Nc3cccc(OC)c3)nc21 |  | inconclusive: 12.6 µM [rising, partial curve]
NCCNS(=O)(=O)c1cccc2c(Cl)cccc12 |  | inconclusive: 12.6 µM [falling, partial curve]
CC(c1nnc(Sc2nnnn2-c2ccccc2)n1-c1ccc(F)cc1)N(C)C (configuration not stated) | inconclusive: -4.55% | 
O=C(Cn1nnc2ccccc2c1=O)Nc1cc(C(F)(F)F)ccc1N1CCOCC1 |  | inconclusive: 5.01 µM [falling, single point]
O=C1c2ccccc2C(=O)N1CCCCN(C(=O)c1ccco1)c1ccc(Cl)cc1 | inconclusive: -4.05% | 
CCCCCOc1ccc(C2C(C(C)=O)=C(C)Nc3ncnn32)cc1OC (configuration not stated) | inconclusive: -15.5% | 
COc1ccc2[nH]cc(CCNc3cc(-c4ccc5c(c4)OCO5)ncn3)c2c1 | inconclusive: 19.5% | 
COc1ccc(-c2csc(Cc3nnc4n3CCCCC4)n2)cc1OC |  | active: 12.6 µM
COc1ccc(CCNC(=O)CSc2ncnc3c2oc2ccccc23)cc1OC |  | inconclusive: 12.6 µM [rising, partial curve]
O=C(Cc1ccccc1)Nc1ccccc1CO | inconclusive: 6.1% | 
O=C(c1cccc(F)c1)N1CCC2(CCN(Cc3ccncc3)CC2)CC1 | inactive: 2.55% | 
CCCCN(CCCNC(=O)c1c(C)cc(=O)oc1C)c1ccccc1 | inconclusive: 28.8% | 
O=C(Nc1ccccc1-c1nnn(CC(=O)N2CCN(c3ccccc3)CC2)n1)c1cccs1 | inconclusive: -5.21% | 
O=C(O)c1ccccc1CN1CCC[C@@H](C(=O)O)C1 | inactive: 6.86% [at 7.6 µM] | 
N#CC12C(N)=NC3(OCCO3)C1(C#N)C1=C(CCC1)NC2c1ccccc1 (configuration not stated) | inconclusive: 25.4% | 
Nc1c2c(nc3ccn(Cc4ccccc4)c(=O)c13)CCC2 | inconclusive: 25.9% | 
Cc1nc(COC(=O)c2c(C)nn(-c3ccccc3)c2C)cs1 |  | inconclusive: 12.6 µM [rising, single point]

SMILES | activity change, negative = inhibition | Potency
CCn1c(=NC(=O)CSCC(=O)Nc2nccs2)sc2ccccc21 |  | inconclusive: 0.794 µM [rising, full curve]
CCc1ccccc1NS(=O)(=O)c1ccc(SC)cc1 | inactive: 13.9% | 
CCOc1ccc(C(C)=O)cc1CSc1nnc(-c2cccs2)n1CC1CCCO1 (configuration not stated) | inactive: 9.55% | 
COC(=O)C1=C(C)NC(C)=C([N+](=O)[O-])[C@@H]1c1ccccc1C(F)(F)F | inconclusive: -21.9% | 
CCOC(=O)N1CCN(C(=O)Nc2ccc(Cl)cc2Cl)CC1 | inconclusive: -5.96% | 
O=C1c2ccc(Oc3ccc4c(c3)C(=O)N(CCCO)C4=O)cc2C(=O)N1CCCO | inconclusive: 25% | 
Cc1cccc(CNc2ccnc(-c3ccccc3C(F)(F)F)n2)c1 | inactive: -13% | 
CCC1=C(C[C@H]2NCCc3ccccc32)C[C@@H]2c3cc(OC)c(OC)cc3CCN2C1 |  | inconclusive: 5.01 µM [rising, single point]
CCOC(=O)N1CCN(C(=O)C2CCCN(c3ncnc4c3sc3cccc(F)c34)C2)CC1 (configuration not stated) | inconclusive: 27.2% | 
COc1ccc(NC(=O)N2CCC3(CC2)CCN(S(=O)(=O)c2ccccc2)CC3)cc1 | inactive: -11.6% | 
COc1ccc(CC(=O)Nc2ccc(N3CCN(c4ccc(OC)cc4)CC3)c(C#N)c2)cc1 | inactive: 1.82% | 
CC[C@]1(O)C[C@H]2CN(CCc3c([nH]c4ccccc34)[C@](C(=O)OC)(c3cc4c(cc3OC)N(C=O)[C@H]3[C@@](O)(C(=O)OC)[C@H](OC(C)=O)[C@@]5(CC)C=CCN6CC[C@]43[C@H]65)C2)C1 |  | active: 1.26 µM
O/N=C(/CN(O)/C=C1/C=CC=N1)c1cccs1 | inactive: 12.3% | 
O=C(CCn1nc(-c2ccccc2)ccc1=O)N1CCCC1 | inconclusive: 20.4% | 
CCOc1nc(-c2ccc(C)cc2)ccc1-c1noc(COC)n1 |  | inconclusive: 3.16 µM [rising, single point]
COc1ccc(NC(=O)CC(Cc2ccccc2)C(=O)O)cc1 (configuration not stated) | inactive: -0.0657% | 
CCCCCCCCCCCCCCCC(=O)C(F)(F)F | inactive: 27.8% | 
COc1cccc(NC(=O)CN2CCN(c3ccc(F)cc3)CC2)c1 |  | inconclusive: 15.8 µM [rising, single point]
COc1cc2c(cc1NCc1ccccn1)oc1ccccc12 | inconclusive: 17% | 
c1ccc([C@@H]2CN3CCSC3=N2)cc1 | inactive | 
Cc1ccc(S(=O)(=O)N2CCN(S(C)(=O)=O)C2)cc1 | inconclusive: 1.98% | 

SMILES | activity change, negative = inhibition | Potency
CCOC(=O)/C=C1\SCC(=O)N1Cc1ccc(Br)cc1 | inconclusive: -21.1% | 
Cc1cc(=O)oc2cc(OCC#N)ccc12 | inactive: 8.24% | 
CCc1ccc(CCC(=O)Nc2nccs2)o1 |  | inconclusive: 5.01 µM [rising, single point]
CCCCCCNC(=O)C(C#N)c1nc2ccccc2nc1N1CCCC1 (configuration not stated) |  | inconclusive: 0.1 µM [falling, full curve]
CC(OC1=CC(=O)CCC1)C(=O)c1ccccc1 (configuration not stated) | inconclusive: 2.39% [at 7.6 µM] | 
CCCCCn1c(CN2CCN(Cc3ccccc3)CC2)nc2c1c(=O)n(C)c(=O)n2C |  | inconclusive: 10 µM [rising, partial curve]
Cc1ccc(C2c3c(oc4cc(C)c(C)cc4c3=O)C(=O)N2CCCN2CCOCC2)cc1 (configuration not stated) |  | inconclusive: 6.31 µM [rising, partial curve]
Cc1ccc(-n2c3c(cc(C(=O)NC4CCSC4=O)c2=O)C(=O)CC(C)(C)C3)cc1 (configuration not stated) |  | inconclusive: 0.02 µM [rising, single point]
COc1cc(Nc2cc(C)nc3nc(C)nn23)cc(OC)c1OC |  | active: 3.98 µM
COc1ccc(NC(=O)Nc2nnc(N3CCCCC3C)s2)cc1OC (configuration not stated) |  | inconclusive: 2 µM [rising, single point]
COCCN1CN(S(=O)(=O)c2ccccc2)c2nc3ccccc3nc21 | inconclusive: 15.3% | 
O=C(NCc1cccs1)c1ccc2c(c1)ncn2C1CCCC1 | inconclusive: 22.3% | 
c1ccc(-n2cnnc2SCc2nc3ccccc3s2)cc1 | inconclusive: 14.7% | 
Fc1ccccc1C(c1nnnn1Cc1ccc2c(c1)OCO2)N1CCN(Cc2ccccc2)CC1 (configuration not stated) |  | inconclusive: 15.8 µM [falling, single point]
O=C(CCc1nc2ccccc2[nH]1)N1CCc2ccccc2C1 |  | inconclusive: 12.6 µM [rising, single point]
CCCCCCCCCCCC1=C(O)C(=O)C=C(O)C1=O | inconclusive: 1.14% and inconclusive: 7.69% | 
CC(C)(C)CC(C)(C)c1cc(O)c(O)c(CN2CCCCC2)c1 | inactive: -10.6% [at 7.6 µM] | 
O=C(c1cccc(S(=O)(=O)N2CCOCC2)c1)N1CCCCCC1 | inconclusive: 4.12% | 
COc1ccc(C(=O)C2CCN(S(=O)(=O)c3ccc4c(c3)OCCO4)CC2)cc1 | inconclusive: 11.5% [cytotoxic] | 
